US20190336582A1 (published 2019)

T1: IL-10 receptor (IL-10R1 and IL-10R2 receptor chains) on mouse cells (mouse, UniProt Q61727 17-575; Q61190 20-349)
T1 sequence (looked up) 1: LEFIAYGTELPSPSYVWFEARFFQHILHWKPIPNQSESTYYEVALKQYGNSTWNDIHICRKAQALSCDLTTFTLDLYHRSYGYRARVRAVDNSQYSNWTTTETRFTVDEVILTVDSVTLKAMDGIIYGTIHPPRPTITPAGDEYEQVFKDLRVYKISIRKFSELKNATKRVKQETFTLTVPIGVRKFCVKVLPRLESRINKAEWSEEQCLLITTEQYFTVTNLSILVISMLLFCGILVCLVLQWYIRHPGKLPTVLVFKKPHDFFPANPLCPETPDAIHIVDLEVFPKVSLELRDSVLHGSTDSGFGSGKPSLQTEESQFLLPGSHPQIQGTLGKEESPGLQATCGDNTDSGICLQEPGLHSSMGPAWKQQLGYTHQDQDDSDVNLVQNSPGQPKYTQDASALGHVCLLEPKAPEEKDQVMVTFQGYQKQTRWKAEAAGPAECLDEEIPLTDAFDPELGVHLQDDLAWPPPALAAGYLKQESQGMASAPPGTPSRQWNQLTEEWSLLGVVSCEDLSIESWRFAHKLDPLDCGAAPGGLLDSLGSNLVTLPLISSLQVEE
T1 sequence (looked up) 2: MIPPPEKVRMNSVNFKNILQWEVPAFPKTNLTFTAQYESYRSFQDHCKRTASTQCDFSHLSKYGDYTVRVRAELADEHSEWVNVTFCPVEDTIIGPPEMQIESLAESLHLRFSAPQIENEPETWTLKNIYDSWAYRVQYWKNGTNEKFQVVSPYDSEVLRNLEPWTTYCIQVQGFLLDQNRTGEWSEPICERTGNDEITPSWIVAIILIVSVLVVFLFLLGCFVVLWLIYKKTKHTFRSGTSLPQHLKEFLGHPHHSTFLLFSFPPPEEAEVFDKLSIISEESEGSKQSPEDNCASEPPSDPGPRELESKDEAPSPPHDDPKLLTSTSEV

B1: wtIL-10:linker:M22A, D41F (R1 + R2 mutant) (Fc fusion)
chain: SPGQGTQSENSCTHFPGNLPNMLRDLRDAFSRVKTFFQMKDQLDNLLLKESLLEDFKGYLGCQALSEMIQFYLEEVMPQAENQDPDIKAHVNSLGENLKTLRLRLRRCHRFLPCENKSKAVEQVKNAFNKLQEKGIYKAMSEFDIFINYIEAYMTMKIRNGGSGGGGSGGSPGQGTQSENSCTHFPGNLPNALRDLRDAFSRVKTFFQMKFQLDNLLLKESLLEDFKGYLGCQALSEMIQFYLEEVMPQAENQDPDIKAHVNSLGENLKTLRLRLRRCHRFLPCENKSKAVEQVKNAFNKLQEKGIYKAMSEFDIFINYIEAYMTMKIRNGGGGSGGGGSRTVAAPSVFIFPPSDEQLKSGTASVVCLLNNFYPREAKVQWKVDNALQSGNSQESVTEQDSKDSTYSLSSTLTLSKADYEKHKVYACEVTHQGLSSPVTKSFNRGECGGGGSGGGGSGGGGSGGGGSASTKGPSVFPLAPSSKSTSGGTAALGCLVKDYFPEPVTVSWNSGALTSGVHTFPAVLQSSGLYSLSSVVTVPSSSLGTQTYICNVNHKPSNTKVDKRV[human IgG1 Fc cut from this listing]
B2: M22A:linker:M22A, D41F (R1 + R2 triple mutant) (Fc fusion)
chain: B1 chain with M22A
B3: M22A, D41F:linker:M22A (R1 + R2 triple mutant) (Fc fusion)
chain: B1 chain with M22A, D41F, F211D
B4: D41F:linker:M22A (R1 + R2 mutant) (Fc fusion)
chain: B1 chain with D41F, F211D
B5: M22A:linker:D41F (R1 + R2 mutant), SEQ ID NO: 29 (Fc fusion)
chain: B1 chain with M22A, A192M
B6: Unsubstituted scIL-10 (5 aa linker):CL:CH1:Fc (Fc fusion)
chain: SPGQGTQSENSCTHFPGNLPNMLRDLRDAFSRVKTFFQMKDQLDNLLLKESLLEDFKGYLGCQALSEMIQFYLEEVMPQAENQDPDIKAHVNSLGENLKTLRLRLRRCHRFLPCENKSKAVEQVKNAFNKLQEKGIYKAMSEFDIFINYIEAYMTMKIRNGGSGGSPGQGTQSENSCTHFPGNLPNMLRDLRDAFSRVKTFFQMKDQLDNLLLKESLLEDFKGYLGCQALSEMIQFYLEEVMPQAENQDPDIKAHVNSLGENLKTLRLRLRRCHRFLPCENKSKAVEQVKNAFNKLQEKGIYKAMSEFDIFINYIEAYMTMKIRNGGGGSGGGGSRTVAAPSVFIFPPSDEQLKSGTASVVCLLNNFYPREAKVQWKVDNALQSGNSQESVTEQDSKDSTYSLSSTLTLSKADYEKHKVYACEVTHQGLSSPVTKSFNRGECGGGGSGGGGSGGGGSGGGGSASTKGPSVFPLAPSSKSTSGGTAALGCLVKDYFPEPVTVSWNSGALTSGVHTFPAVLQSSGLYSLSSVVTVPSSSLGTQTYICNVNHKPSNTKVDKRV[human IgG1 Fc cut from this listing]
B7: Unsubstituted scIL-10 (5 aa linker) Fc (Control) (Fc fusion)
chain: SPGQGTQSENSCTHFPGNLPNMLRDLRDAFSRVKTFFQMKDQLDNLLLKESLLEDFKGYLGCQALSEMIQFYLEEVMPQAENQDPDIKAHVNSLGENLKTLRLRLRRCHRFLPCENKSKAVEQVKNAFNKLQEKGIYKAMSEFDIFINYIEAYMTMKIRNGGSGGSPGQGTQSENSCTHFPGNLPNMLRDLRDAFSRVKTFFQMKDQLDNLLLKESLLEDFKGYLGCQALSEMIQFYLEEVMPQAENQDPDIKAHVNSLGENLKTLRLRLRRCHRFLPCENKSKAVEQVKNAFNKLQEKGIYKAMSEFDIFINYIEAYMTMKIRN[human IgG1 Fc with C220S (EU numbers) cut from this listing]

molecular target: T1, IL-10 receptor (IL-10R1 and IL-10R2 …); assay: cell-based or functional assay

| Binder | EC50, proliferation of mouse mast cell line MC/9 | IC50, inhibition of TNFα production in LPS-stimulated C57BL/6 mouse PBMCs (PBMC + LPS) |
| --- | --- | --- |
| B1 | 6590 pM | 2.6 pM |
| B2 | – | 502 pM |
| B3 | – | 65 pM |
| B4 | – | 8.9 pM |
| B5 | – | 4.4 pM |
| B6 | 0.6 pM | 0.007 pM |
| B7 | 409 pM | 0.08 pM |

Residue numbers refer to the chain shown, from its start. In names and notes the source's numbering stands.
